Assay results as given in PubChem BioAssay AID624417 (National Center for Advancing Translational Sciences (NCATS), 2012).
Screen size: about 410,000 compounds; about 6,400 (1.6%) were called active. The shares of active, inactive and inconclusive entries below differ from those in the screen. The call rests on the fitted dose curve; in most records, active means well fitted inhibition curve with a large enough effect; inconclusive means small, poorly fitted or top-dose-only effect; inactive means no such curve, though single readings can be large or run the other way. Potencies of inconclusive entries are doubtful fits and often do not repeat.

molecular target: Glucagon-like peptide 1 receptor (Homo sapiens) (UniProt P43220); assay: qHTS of GLP-1 Receptor Inverse Agonists (Inhibition Mode); conditions: HEK293 GLP-1R CRE-luciferase, luminescence, 24 h, GLP-1R form is constitutively active; activity change, negative = inhibition: at 38.3 µM (top of the series) unless noted; further: nearly all actives have a fitted effect of over 55% in size
Summary of the method: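 Luminescence readout: a drop in cAMP-driven luciferase signal flags inverse agonism at a constitutively active GLP-1R stably expressed in HEK293. Compound exposure lasted 24 hr at 37 deg C, 5% CO2.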
On the % scale 0 is the no-effect control and ±100 the full control effect; potency means the concentration at half of the fitted maximal effect; tags describe the fitted curve by direction and shape.

Sequence of UniProt P43220 (P43220 whole entry, looked up): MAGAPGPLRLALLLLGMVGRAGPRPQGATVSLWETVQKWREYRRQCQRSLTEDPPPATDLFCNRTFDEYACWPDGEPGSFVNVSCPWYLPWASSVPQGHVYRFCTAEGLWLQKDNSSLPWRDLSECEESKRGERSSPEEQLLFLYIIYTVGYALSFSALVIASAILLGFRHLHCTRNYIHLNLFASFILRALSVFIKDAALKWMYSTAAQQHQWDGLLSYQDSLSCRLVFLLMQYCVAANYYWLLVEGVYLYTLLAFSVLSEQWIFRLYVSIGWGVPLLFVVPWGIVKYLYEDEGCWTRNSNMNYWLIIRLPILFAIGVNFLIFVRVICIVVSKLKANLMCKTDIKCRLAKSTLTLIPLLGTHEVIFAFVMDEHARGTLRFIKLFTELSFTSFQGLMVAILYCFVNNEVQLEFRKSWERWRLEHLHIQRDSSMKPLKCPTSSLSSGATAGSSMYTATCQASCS

Potency, inconclusive:
CN1CCCN(S(=O)(=O)c2cccc(Cl)c2Cl)CC1 11.2 µM [inhibitor, partial curve, poor fit], N#Cc1ccccc1OCC(=O)N1N=C(c2cccs2)CC1c1ccco1 (centres undefined) 28.2 µM [inhibitor, single point], COc1ccccc1S(=O)(=O)Nc1cc(C)nn1-c1ccc(C)cc1 7.94 µM [inhibitor, partial curve], O=C(NC1CCCC1)c1ccc(CSc2nc3ccncc3n2Cc2cccc(F)c2)cc1 10 µM [inhibitor, single point], COc1ccc(OCC(=O)N2CCC(c3nc4ccccc4s3)CC2)cc1 12.6 µM [inhibitor, single point], CC(C)(C)/C(COc1ccccc1[N+](=O)[O-])=N/O 28.2 µM [inhibitor, single point], Cc1ccc(S(=O)(=O)N2CCN(C(=O)c3cc(S(=O)(=O)N4CCOCC4)ccc3Cl)CC2)c(C)c1 12.6 µM [inhibitor, partial curve, poor fit], COC(=O)C1=C(C)N(Cc2ccccc2)C(=NCCN2CCOCC2)N[C@H]1CCc1ccccc1 10 µM [inhibitor, single point], Nc1c(C(=O)NCCN2CCOCC2)c2nc3ccccc3nc2n1CCc1ccccc1F 28.2 µM [inhibitor, single point], Cc1ccc(S(=O)(=O)N(CC(=O)N2CCOCC2)c2ccc(C(C)C)cc2)cc1 22.4 µM [inhibitor, single point], Cc1ccc(S(=O)(=O)NCCC(=O)Nc2ccc(Cl)c(Cl)c2)cc1 10 µM [inhibitor, partial curve, poor fit], CC(=O)NC(NC(=S)Nc1ccc(N=Nc2ccccc2C)cc1C)C(Cl)(Cl)Cl (centres undefined) 2.82 µM [inhibitor, full curve], Cc1ccc(OCc2nnc(SCC(=O)Nc3cccc4ccccc34)n2-c2ccccc2)cc1 5.01 µM [inhibitor, full curve, poor fit], CC1CCN(C(=O)C2CCN(C(=O)c3ccc(C(C)(C)C)cc3)CC2)CC1 15.8 µM [inhibitor, partial curve, poor fit], Cc1ccccc1Cn1nnc(C(=O)Nc2cccc(C)c2C)c1N 7.08 µM [inhibitor, partial curve], COc1cc(NC(=S)N2CCN(S(=O)(=O)c3ccccc3)CC2)cc(OC)c1 12.6 µM [inhibitor, partial curve, poor fit], Cc1ccc(OCC(=O)Nc2ccc(CN3CCOCC3)cc2)cc1C 3.16 µM [inhibitor, single point], CCCSc1nnc(NC(=O)Nc2ccc(F)cc2)s1 3.55 µM [inhibitor, full curve, poor fit], O=C(CN1C2CCCC1CC(NC(=O)c1ccco1)C2)Nc1ccccc1C(F)(F)F (centres undefined) 2.82 µM [inhibitor, full curve], Cc1ccc(N(CC2=NCCN2)c2cccc(O)c2)cc1 31.6 µM [inhibitor, single point], CN(C)C(=O)c1ccccc1Sc1cc(Cl)ccc1Cl 14.1 µM [inhibitor, single point], Cc1[nH]c2ccccc2c1C(=O)CSc1nc2cc(S(=O)(=O)N3CCCCC3)ccc2o1 5.62 µM [inhibitor, full curve], Fc1ccc(N2CCN(c3ncnc4onc(-c5ccc(Cl)cc5)c34)CC2)cc1 28.2 µM [inhibitor, single point], O=C(CO/N=C/c1ccc(OC(F)F)cc1)NCc1ccc(F)cc1 20 µM [inhibitor, single point], COc1cccc(OCC(O)CN2CCc3ccccc3C2)c1 (centres undefined) 31.6 µM [inhibitor, single point], CN(CCCC(=O)O)c1ccc(N=Nc2ccc([N+](=O)[O-])cc2)cc1 11.2 µM [inhibitor, partial curve, poor fit], CNCCCOc1cc(C)cc(C)c1C 10 µM [inhibitor, single point], O=C(CSc1nc2nc(-c3cccs3)cc(C(F)(F)F)c2c(=O)[nH]1)Nc1c(F)c(F)c(F)c(F)c1F 3.16 µM [inhibitor, full curve, poor fit], CCOC(=O)C1=CN(Cc2cccc(I)c2)S(=O)(=O)N(C)C1C (centres undefined) 28.2 µM [inhibitor, single point], CC(C)c1ccc(NC(=O)c2ccc(=O)n(Cc3ccccc3)c2)cc1 10 µM [inhibitor, partial curve, poor fit], CC1Cc2ccccc2N1S(=O)(=O)c1cccc(C(=O)NC2CC2)c1 (centres undefined) 28.2 µM [inhibitor, single point], CN(Cc1ccccc1)C(=O)c1ccccc1-c1ccccc1 31.6 µM [inhibitor, single point], O=C(CN1C(=O)c2ccccc2S1(=O)=O)c1ccccc1 5.01 µM [inhibitor, full curve], Cc1ccc(C)c(NS(=O)(=O)c2cc(C(=O)Nc3cccc(N(C)S(C)(=O)=O)c3)ccc2C)c1 5.62 µM [inhibitor, partial curve, poor fit], Cc1ccc(S(=O)(=O)N2CCCCC2)cc1NC(=O)c1ccc2c(c1)OCO2 31.6 µM [inhibitor, single point], NC(CCc1ccccc1)c1csc(NC(=O)NCC2CCCCC2)n1 (centres undefined) 28.2 µM [inhibitor, single point], CC1(C)CC(=O)c2c(n(S(=O)(=O)c3ccccc3)c3ccc(NS(=O)(=O)c4ccccc4)cc23)C1 31.6 µM [inhibitor, single point], Cc1sc2ncnc(N3CCC(C(=O)N(C)CC(=O)Nc4ccccc4Cl)CC3)c2c1C 15.8 µM [inhibitor, partial curve, poor fit], S=C(NCCc1ccccc1)N1CCC2CC1c1cc(-c3ccc4c(c3)OCO4)ccc12 (centres undefined) 7.08 µM [inhibitor, partial curve, poor fit], CCc1ccc(N2CC(C(=O)Nc3ccccc3N3CCCC3)CC2=O)cc1 (centres undefined) 8.91 µM [inhibitor, partial curve], Cc1ccc(-n2c(=O)c3oc4ccccc4c3n(Cc3cccc(F)c3)c2=O)cc1C 31.6 µM [inhibitor, single point], CN(C)S(=O)(=O)Nc1cccc(NC(=O)CC23CC4CC(CC(C4)C2)C3)c1 14.1 µM [inhibitor, single point], COc1ccccc1Nc1c2c(nc3ccc(NC(=O)c4ccc(N(C)C)cc4)cc13)CCCC2 11.2 µM [inhibitor, partial curve, poor fit], Cc1ccc(NC(=O)OCC(F)(F)C(F)F)cc1NC(=O)OCC(F)(F)C(F)F 28.2 µM [inhibitor, single point], CSc1nc(N2CCN(Cc3ccc4c(c3)OCO4)CC2)c2ccccc2n1 28.2 µM [inhibitor, single point], CSc1ccc(CCNC(=O)c2csc3c2CCCCC3)cc1 11.2 µM [inhibitor, partial curve, poor fit], COc1ccc(O)c(-c2cc(-c3ccccc3Cl)[nH]n2)c1 5.01 µM [inhibitor, full curve]

Potency, active:
CCCN(CC(=O)Nc1ccccc1C)C(=O)c1ccc2[nH]c3c(c2c1)CC(C)CC3 (centres undefined) 5.62 µM, COc1cc(Nc2nc(-c3ccc(OC)c(OC)c3)nc3ccccc23)cc(OC)c1 11.2 µM

Activity change, negative = inhibition, inactive:
COc1ccc(CN2CCN(C3CCSCC3)CC2CCO)c(C)c1C (centres undefined) -27.7%, COCCN(C(=O)CCC(=O)Nc1cc(C)on1)C(C(=O)NC1CCCC1)c1ccccc1F (centres undefined) 9.73%, c1csc(Cc2nn3c(-c4n[nH]c5c4CCC5)nnc3s2)c1 99.8%, Cc1ccc(S(=O)(=O)N(C)C)cc1NC(=O)COC(=O)COc1ccc2c(C)cc(=O)oc2c1 12.5%, O=C(CSc1nc2c(oc3ccccc32)c(=O)n1-c1ccccc1)Nc1ccc(F)c(Cl)c1 -13.8%, O=C(COC(=O)CC1CC2CCC1C2)NCc1ccc(F)cc1 (centres undefined) -14.1%, O=C(CSc1nnc(-c2ccco2)c(-c2ccco2)n1)c1ccccc1 0.972%, Cc1nnc(NC(=O)c2ccccc2NC(=O)c2ccccc2)s1 11.7%, Nc1cc(C(=O)OCC(=O)NC(c2ccccc2)c2ccccc2)ccc1Cl 15.3%, Cc1nc2nc(NCc3ccc(Br)cc3)[nH]n2c(=O)c1Cc1ccccc1 -0.372%, COc1ccc(/C=C/C(=O)C2CC2)cc1Cn1nc(C)c([N+](=O)[O-])c1C -5.41%, C[C@H]1COc2cc(N3CCC[C@H]3CO)ccc2S(=O)(=O)N1 14.9%, CN(CCCNC(=O)C1CCN(S(=O)(=O)N2CCC3(CC2)OCCO3)CC1)Cc1ccccc1 40.4%, COc1ccc(NC(=O)CS(=O)(=O)c2cn(CC(=O)N3CCOCC3)c3ccccc23)cc1 3.04%

Activity change, negative = inhibition, inconclusive:
CCCCn1c(SCC(=O)OCC)nc2c(sc(=S)n2-c2ccccc2OC)c1=O -75.4% [inhibitor]
